# Hit rate of the full screen: of about 2,100 compounds, about 650 (31%) were called active. The inconclusive results got no clear call from the source; some entries with a clear call stand among them for comparison. Calls come from the whole dose curve; as a rule, active = well fitted inhibition curve with a large enough effect; inconclusive = small, poorly fitted or top-dose-only effect; inactive = flat fitted curve, though single readings scatter. Potencies of inconclusive entries are left out as doubtful fits.
# Assay: qHTS for inhibitors of Vif-A3G interactions: Cherry picks; note: nearly all actives have a fitted effect of over 80% in size; for activity, negative = fluorescence increase: % of control where 0% means no effect
# Conditions: HeLa A3G-eYFP + Vif (tagged APOBEC3G with the HIV-1 protein that degrades it), 24 h; Potency: eYFP fluorescence increase unless noted; activity, negative = fluorescence increase: at 36.9 µM (top of the series) unless noted
# Summary of the method: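 Cherry-picked compounds tested at several concentrations on A3G-eYFP/Vif HeLa cells for 24 hours; loss of Vif-driven degradation read as eYFP fluorescence by cytometric plate imaging, 488 nm excitation, 500-530 nm emission.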
# Potency is the fitted concentration of half-maximal effect; tags give direction and shape of the fitted curve.
Structure (SMILES),Potency,"activity, negative = fluorescence increase"
S=C(NCc1ccco1)Nc1ccc(Cl)cn1,"inconclusive [inhibitor, single point]",
CCOC(=O)N1CCC(Nc2nc3ccccc3n3nnnc23)CC1,"inconclusive [inhibitor, full curve, poor fit]",
O=C1NC(c2ccc(Br)cc2)Nc2ccccc21 (configuration not stated),,inactive: -8.49%
COc1ccccc1C1=NOC(COc2ccc3c(C)cc(=O)oc3c2)C1 (configuration not stated),,inactive: -2.24%
CN1/C(=C\C=C2/SC(=S)N(CC(=O)O)C2=O)C(C)(C)c2ccccc21,active: 1.3 µM,
NC1=NC(=O)/C(=C/c2cc(Br)c(O)c(Br)c2)S1,"inconclusive [inhibitor, single point]",
Cc1ccc2oc(/N=C(\N)NC(=O)C(C)(C)C)nc2c1,,inactive: -6.59% [at 46.1 µM]
Cc1ccccc1Cn1c(=N)n(CC(=O)c2ccc([N+](=O)[O-])cc2)c2ccccc21,"inconclusive [inhibitor, single point]",
CC(=O)Nc1ccc(Nc2c3c4c(cccc4n(C)c2=O)C(=O)c2ccccc2-3)cc1,"inconclusive [inhibitor, single point]",
Clc1ccccc1/C=N/NC1=Nc2cccc3cccc1c23,"inconclusive [inhibitor, single point]",
CCCN1CCc2c(sc(NC(=S)NC(=O)c3ccccc3)c2C#N)C1,"inconclusive [inhibitor, single point]",
Cc1cccn2c(=O)c3cc(C#N)c(=NC(=O)c4cccs4)n(CCCOC(C)C)c3nc12,"inconclusive [inhibitor, single point]",
Cc1nc2ccc(NC(=O)c3cc(S(=O)(=O)N(C)c4ccccc4)ccc3Cl)cc2s1,"inconclusive [inhibitor, single point]",
COc1ccc(/C=C2/CSC/C(=C/c3ccc(OC)c(OC)c3)C2=O)cc1OC,,inactive: -0.25%
Cc1ccc(-c2cc(NC=O)c3ncc(-c4cnn(C)c4)n3c2)cc1,,inactive: -23.5%
CNC(=O)C(Sc1nc(C)nc2c1oc1ccccc12)C(C)=O (configuration not stated),,inactive: -5.85%
Cc1ccccc1NC(=O)CSc1nc2cc3c(cc2cc1C)CCC3,,inactive: -2.42%
CS(=O)(=O)Nc1ccc(C2=NN(S(=O)(=O)c3ccccc3)C(c3cccs3)C2)cc1 (configuration not stated),"inconclusive [inhibitor, single point]",
Cc1ccc(N/C(N)=N/c2nc(CSc3nnc(C)s3)cc(=O)[nH]2)c(C)c1,,inactive: -3.92%
Cc1cc2c(cc(C(=O)OCC(=O)NCc3cccs3)n2C(C)C)o1,,inactive: -9.64%
COc1ccc(NC(=O)C2(C)Cc3c(-c4cccc(C(N)=O)c4)ccnc3O2)cc1 (configuration not stated),,inactive: -5.15%
CCc1sc(-c2cc3ccc(O)cc3oc2=O)nc1-c1ccc(C)cc1,"inconclusive [inhibitor, full curve]",
COc1cc(/C=C2\SC(=Nc3cccnc3)NC2=O)cc(OC)c1OC,,inactive: -29.3% [at 46.1 µM]
CCn1c(CNC(=O)c2cc(OC)c(OC)c(OC)c2)cc2cc(C)ccc21,,inactive: -2.87% [at 46.1 µM]

Structure (SMILES),Potency,"activity, negative = fluorescence increase"
COc1cc(C(=O)c2ccc3c(c2)OCO3)cc(OC)c1OC,,inactive: -6.58%
CCCCCCc1cc2cc(-c3nnc(-c4ccccc4O)o3)c(=O)oc2cc1O,"inconclusive [inhibitor, full curve]",
COc1cc(/C=C2\C(=N)N3N=C(S(C)(=O)=O)SC3=NC2=O)ccc1OC(=O)c1ccco1,"inconclusive [inhibitor, partial curve, poor fit]",
N#CCSc1ccccc1NC(=O)CN1C(=O)C2CC=CCC2C1=O (configuration not stated),"inconclusive [inhibitor, single point]",
CN(C)c1ccccc1-c1cc(NC=O)c2ncc(-c3cccc(C(F)(F)F)c3)n2c1,"inconclusive [inhibitor, single point]",
COc1ccccc1CNc1nc2ccc(C)cc2n2nnnc12,"inconclusive [inhibitor, single point]",
N#Cc1ccc(-c2ccco2)nc1SCc1ccccc1,,inactive: -4.02%
Fc1ccccc1Nc1nc2ccccc2n2nnnc12,"inconclusive [inhibitor, single point]",
CN(C)c1ccc(/C=C(/C(=O)c2ccc(Cl)cc2Cl)n2cncn2)cc1,"inconclusive [inhibitor, single point]",
CCOc1ccc(/C=N/NC(=O)c2cc3c(OC)cccc3[nH]2)cc1,"inconclusive [inhibitor, single point]",
O=C1c2cccc3c([N+](=O)[O-])c(O)cc(c23)C(=O)N1Nc1ccccc1,"inconclusive [inhibitor, single point]",
C=CCOc1ccc2nc(NC(=O)OC)[nH]c2c1,,inactive: -9.73%
S=c1[nH]cnc2sc(-c3ccccc3)cc12,,inactive: 2.34% [at 46.1 µM]
CC1=CC(C)(C)Nc2ccc(OC(=O)c3ccco3)cc21,"inconclusive [inhibitor, single point]",
O=C(C[n+]1cccc2cc(Cl)ccc21)c1ccc(I)cc1,active: 20.6 µM,
O=C1/C(=C/c2ccc(O)cc2)SC(=S)N1Cc1cccnc1,"inconclusive [inhibitor, single point]",
COc1cc(Br)c(/C=C(\C#N)c2nc3ccccc3[nH]2)cc1OC,active: 18.4 µM,
COc1ccc2o/c(=N/NC(=O)c3cccs3)c(C(N)=O)cc2c1,active: 14 µM,
CCc1nc(Nc2ccc3nccnc3c2)c2oc3ccccc3c2n1,"inconclusive [inhibitor, single point]",
O=C(NC1CCCCCC1)c1ccc2c(c1)sc1nc(-c3ccccc3)cn12,"inconclusive [inhibitor, single point]",
COc1ccc(OC)c(/C=C/c2nc3ccccc3[nH]c2=O)c1,active: 18.4 µM,
Cc1cccc(C)c1Nc1nc2ccccc2nc1NS(=O)(=O)c1ccccc1,"inconclusive [inhibitor, single point]",
CCN(CC)c1ccc(/C=N/N=C(N)N)c(O)c1,,inactive: -11.8%
CN(C)c1ccc(/C=C/c2ccnc3ccc(-c4ccccc4)cc23)cc1,active: 18.4 µM,

Structure (SMILES),Potency,"activity, negative = fluorescence increase"
O=C(N/N=C/C=C/c1ccco1)c1ccncc1,,inactive: 7.78% [at 46.1 µM]
O=C(c1cc(-c2ccncc2)nc2ccccc12)N1CCN(c2ccccn2)CC1,,inactive: -7.38%
O=C(NCc1cccc(F)c1)c1cccc2c1C(=O)c1ccc(N3CCCC3)cc1S2(=O)=O,"inconclusive [inhibitor, single point]",
Cc1ccc(C(=O)c2cc([N+](=O)[O-])ccc2N2CCN(C)CC2)cc1,,inactive: -1.12%
CN(C)CCNc1ccc2ncn3c4ccc(O)cc4c(=O)c1c23,active: 20.6 µM,
CC(=O)c1sc(N/N=C\c2c(O)ccc3ccccc23)nc1C,"inconclusive [inhibitor, single point]",
Cc1cc(NC(=O)/C(C#N)=C\c2ccc(-c3ccc(SC(F)F)cc3)o2)n(-c2ccccc2)n1,active: 14.6 µM,
CN(C)c1ccc(/C=C/c2ccnc3c(N)cccc23)cc1,"inconclusive [inhibitor, single point]",
COc1ccccc1C=CC(=O)C=Cc1ccccc1OC,"inconclusive [inhibitor, single point]",
COCCNC(=S)N/N=C(\C)c1ccc(OC(F)F)cc1,,inactive: -1.7% [at 46.1 µM]
O=C(NCc1cc(C(F)(F)F)ccc1Cl)c1cccc2c1C(=O)c1ccc(N3CCC(Cc4ccccc4)CC3)cc1S2(=O)=O,"inconclusive [inhibitor, single point]",
COc1ccc(CCNC(=O)CC2(CC3=NS(=O)(=O)c4ccccc4N3)CCCC2)cc1OC,,inactive: 2.13%
COc1ccc(Nc2nc3cc(C)ccc3cc2C#N)cc1,"inconclusive [inhibitor, single point]",
O=c1[nH]c(CN2CCN(c3ccccc3)CC2)nc2scc(-c3ccccc3)c12,"inconclusive [inhibitor, partial curve, poor fit]",
OCCCn1c(C2CCCN2c2nc(-c3ccc(F)cc3)cs2)nc2cc(Cl)c(N3CCCCC3)cc21 (configuration not stated),"inconclusive [inhibitor, single point]",
Cc1ccc(NC(=O)CO/N=C/c2ccc(N(C)C)cc2)cc1,"inconclusive [inhibitor, single point]",
COc1cc(C(=O)Nc2ccc(C)cc2)c2ccccc2n1,,inactive: -24.2%
COc1cc(NC(=O)c2ccco2)c(C(=O)OCC(=O)c2c[nH]c3ccccc23)cc1OC,"inconclusive [inhibitor, single point]",
COc1ccc(N=Cc2c(O)n(-c3ccc(OC)cc3)c(=O)c3ccccc23)cc1,"inconclusive [inhibitor, partial curve]",
CN(C)c1ccc(/C=N/N(CCO)C2=NS(=O)(=O)c3ccccc32)cc1,"inconclusive [inhibitor, single point]",
O=S(=O)(N=C1C=CC(=NS(=O)(=O)c2ccccc2)c2ccccc21)c1ccccc1,"inconclusive [inhibitor, single point]",
CC(C)(C)c1ccc(-c2csc(NC(=O)CN3C(=O)NC4(CCCCC4)C3=O)n2)cc1,"inconclusive [inhibitor, single point]",
O=C(NC1CCCCC1)c1cccc2c1C(=O)c1ccc(N3CCC(Cc4ccccc4)CC3)cc1S2(=O)=O,"inconclusive [inhibitor, single point]",
Cc1ccc2nc(/C(C#N)=C\c3ccc([N+](=O)[O-])o3)[nH]c2c1,active: 3.26 µM,

# — PubChem BioAssay AID651812 (National Center for Advancing Translational Sciences (NCATS), 2012)
